{
  "source": "the supplement of paper PMC11417369",
  "note": "± gives the standard deviation of the averaged measurements. This is one part of the list.",
  "data": [
    {"test_system": "PfAP2-EXP AP2 domain (GST-tagged)", "assay": "gcPBM binding intensity (ln(normalized median fluorescence intensity)); higher = stronger DNA binding", "outline": "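DNA-binding domains from P. falciparum, fused to GST and produced in E. coli, were put on an Agilent 4 × 180k double-stranded probe array for 1 h in 1× PBS holding 1% milk, 0.2 mg/ml BSA, 0.5% salmon testes DNA and 0.03% Triton X-100. Probes were primer-extended, 36 bp long and drawn from intergenic genomic regions, with negative controls included. After Alexa488 anti-GST antibody detection and a 488 nm scan, binding intensity was set as the highest Masliner-normalised natural-log median intensity across replicate spots of either probe orientation.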", "values": [
      {"sequence": "TTTTCCCTTAACCTCTGTACATATAATTTTCTTTCC [XGTACX_site4180]", "gcPBM binding intensity (ln)": "8.98 ± 0.52"},
      {"sequence": "AAATATTTTTTAATTGTTCACTTGGTGGATCATTAA [CACACA_negctrl_site922]", "gcPBM binding intensity (ln)": "8.28 ± 0.28"},
      {"sequence": "TATCCATTATTTAAAAGTACAAAAAACGATTTACAC [XGTACX_site2979]", "gcPBM binding intensity (ln)": "8.66 ± 0.37"},
      {"sequence": "AAGAATTATATATTCACACAAAAAAAAAGTAAAAGA [CACACA_site5335]", "gcPBM binding intensity (ln)": "8.69 ± 0.46"},
      {"sequence": "TTTTAACATAGAAGTACACACATATAATCAATCATA [CACACA_site5313]", "gcPBM binding intensity (ln)": "8.59 ± 0.4"},
      {"sequence": "AAAAAAAAAAAAAAGAGTACATTTATTTATATATCT [XGTACX_site2381]", "gcPBM binding intensity (ln)": "8.23 ± 0.19"},
      {"sequence": "TGTTTAACACATGTTTCAAACAAAAAAAAAAAGACA [CACACA_negctrl_site1356]", "gcPBM binding intensity (ln)": "8.63 ± 0.59"},
      {"sequence": "AATATATTAAATCTTACACACTAAAAAATATGTAAC [CACACA_site4325]", "gcPBM binding intensity (ln)": "8.26 ± 0.35"},
      {"sequence": "TATAATATATATATATGTACATATTATTTACATATA [XGTACX_site7312]", "gcPBM binding intensity (ln)": "8.4 ± 0.28"},
      {"sequence": "TTTTAAATTTTTTAAAGTACACGTCGAAAAGGTATA [XGTACX_site76]", "gcPBM binding intensity (ln)": "8.99 ± 0.32"},
      {"sequence": "TTAATTTTTGAAGGTACACACTAATATATTAAATAT [CACACA_site4791]", "gcPBM binding intensity (ln)": "8.63 ± 0.21"},
      {"sequence": "AAAATGAAACAAATATGTACACATATAAATATTTCC [XGTACX_site54]", "gcPBM binding intensity (ln)": "8.22 ± 0.35"},
      {"sequence": "TTATCCCCCTATCATTGTACATTAATACAAACTAAA [XGTACX_site5630]", "gcPBM binding intensity (ln)": "9.95 ± 0.4"},
      {"sequence": "CTTTTAATTATAAAATGTACTTAAAAATAATAATAC [XGTACX_site635]", "gcPBM binding intensity (ln)": "8.43 ± 0.26"},
      {"sequence": "AAAACAGACAAACACACACACACATATATATATATA [CACACA_site3393]", "gcPBM binding intensity (ln)": "10.1 ± 0.49"},
      {"sequence": "ATATTTGTAATTATTAAACACACACTAATTATATAT [CACACA_site8803]", "gcPBM binding intensity (ln)": "8.52 ± 0.45"},
      {"sequence": "ATAAAGAAAATATGGAGTACATTTATATCCAATATA [XGTACX_site3085]", "gcPBM binding intensity (ln)": "8.43 ± 0.4"},
      {"sequence": "TTTTATGAAAAATGGCTTATCTGTAAAGAAGTGGAG [CACACA_negctrl_site1586]", "gcPBM binding intensity (ln)": "8.73 ± 0.39"},
      {"sequence": "AAATATATACTACCGATGCACTAAATATAAACACAT [GTGCAC_site9777]", "gcPBM binding intensity (ln)": "8.76 ± 0.18"},
      {"sequence": "TTATCATTTGGACACGCACACACACCGAAAAAGAAA [CACACA_site8008]", "gcPBM binding intensity (ln)": "8.99 ± 0.65"},
      {"sequence": "AATAATTTAAGGAATACACACAAGAAAAAAATAAGA [CACACA_site60]", "gcPBM binding intensity (ln)": "9.07 ± 0.51"},
      {"sequence": "TTTTTTGCTAAAAAGAGTACTAATAAAAAATTTATT [XGTACX_site5235]", "gcPBM binding intensity (ln)": "8.34 ± 0.34"},
      {"sequence": "TTTTTGTAATTATATTAATATATATATATATATATA [CACACA_negctrl_site198]", "gcPBM binding intensity (ln)": "9.9 ± 0.26"},
      {"sequence": "GAAAACATTAAAAGTTAGATCATAAGAAAAGAATAT [GTGCAC_negctrl_site726]", "gcPBM binding intensity (ln)": "8.74 ± 0.42"},
      {"sequence": "CATATATGTGATAACACGCACACAAATGTATAGAAT [CACACA_site2594]", "gcPBM binding intensity (ln)": "8.78 ± 0.44"},
      {"sequence": "ACATTATATAAAATATGTACATATAAAAAATTCTAT [XGTACX_site1617]", "gcPBM binding intensity (ln)": "8.74 ± 0.26"},
      {"sequence": "GTTCATCACATATACACATGCATATTCTAATATGTA [TGCATGCA_site809]", "gcPBM binding intensity (ln)": "9.03 ± 0.35"},
      {"sequence": "ATTATTTAGAAATGAGCACACAAAAAGAAGAATTTT [CACACA_site7913]", "gcPBM binding intensity (ln)": "8.65 ± 0.52"},
      {"sequence": "TATTTATTTATTTATGCATGCATGAATAATTTTTAC [TGCATGCA_site31]", "gcPBM binding intensity (ln)": "9.78 ± 0.18"},
      {"sequence": "ATAATAATATAAAATACACACCTATTATTTTTACAA [CACACA_site6069]", "gcPBM binding intensity (ln)": "8.32 ± 0.38"},
      {"sequence": "CCACATATACAAAACACACACACAACGTTTTAATAA [CACACA_site1978]", "gcPBM binding intensity (ln)": "8.74 ± 0.61"},
      {"sequence": "ACAAGAGAAGTAATTGCACACGTTGTTTCTTTTTCT [CACACA_site35]", "gcPBM binding intensity (ln)": "8.94 ± 0.28"},
      {"sequence": "TCACTATAGTAATTTACACACATTTGAAGAAAATGT [CACACA_site7626]", "gcPBM binding intensity (ln)": "8.47 ± 0.33"},
      {"sequence": "GTGTTAATTTTAAATTGTACAAAATTTATATGATTT [XGTACX_site348]", "gcPBM binding intensity (ln)": "8.45 ± 0.38"},
      {"sequence": "GAAAAGCATAGATGCACACATATATATATATATATA [CACACA_site2169]", "gcPBM binding intensity (ln)": "10.1 ± 0.39"},
      {"sequence": "ATTAATTTTGGTTCATGTACATAAGAAATAAACTCT [XGTACX_site4534]", "gcPBM binding intensity (ln)": "8.65 ± 0.39"},
      {"sequence": "ATTTTTATACGTTTTTTTTTTTTTTTTTTTTATTTA [CACACA_negctrl_site1142]", "gcPBM binding intensity (ln)": "8.32 ± 0.49"},
      {"sequence": "ATATACTTTTTTTTTTTTTTTTTAACGTTATTTATG [CACACA_negctrl_site1277]", "gcPBM binding intensity (ln)": "8.38 ± 0.61"},
      {"sequence": "AAAATATATGAAAACAGTACATATAAAAATTAAAAA [XGTACX_site2594]", "gcPBM binding intensity (ln)": "8.5 ± 0.3"},
      {"sequence": "TTACACATATATATAAATATATATAAATATATATAT [CACACA_negctrl_site150]", "gcPBM binding intensity (ln)": "8.72 ± 0.14"},
      {"sequence": "TACAGACAGAAATGCACACACATATATATATATATA [CACACA_site2283]", "gcPBM binding intensity (ln)": "10.1 ± 0.57"},
      {"sequence": "TATTTGTTTGAATTTTTTTTTTTTTTTTTTTATGTG [CACACA_negctrl_site966]", "gcPBM binding intensity (ln)": "7.97 ± 0.58"},
      {"sequence": "TTTATATTTCAATTTTGTGCTTCGCAAATTGAGAGG [TGCATGCA_negctrl_site327]", "gcPBM binding intensity (ln)": "8.37 ± 0.3"},
      {"sequence": "CACTACATTATGTCATAAATGCATACATAAACATAT [GTGCAC_negctrl_site513]", "gcPBM binding intensity (ln)": "8.65 ± 0.32"}
    ]}
  ]
}
